# Test results published in patent publication US20220119536A1 (Boehringer Ingelheim, published 2022).
# Biological target: human TrkB receptor (human, UniProt Q16620 32-822)
# Assay: cell-based or functional assay
# UniProt Q16620, sequence (Q16620 32-822): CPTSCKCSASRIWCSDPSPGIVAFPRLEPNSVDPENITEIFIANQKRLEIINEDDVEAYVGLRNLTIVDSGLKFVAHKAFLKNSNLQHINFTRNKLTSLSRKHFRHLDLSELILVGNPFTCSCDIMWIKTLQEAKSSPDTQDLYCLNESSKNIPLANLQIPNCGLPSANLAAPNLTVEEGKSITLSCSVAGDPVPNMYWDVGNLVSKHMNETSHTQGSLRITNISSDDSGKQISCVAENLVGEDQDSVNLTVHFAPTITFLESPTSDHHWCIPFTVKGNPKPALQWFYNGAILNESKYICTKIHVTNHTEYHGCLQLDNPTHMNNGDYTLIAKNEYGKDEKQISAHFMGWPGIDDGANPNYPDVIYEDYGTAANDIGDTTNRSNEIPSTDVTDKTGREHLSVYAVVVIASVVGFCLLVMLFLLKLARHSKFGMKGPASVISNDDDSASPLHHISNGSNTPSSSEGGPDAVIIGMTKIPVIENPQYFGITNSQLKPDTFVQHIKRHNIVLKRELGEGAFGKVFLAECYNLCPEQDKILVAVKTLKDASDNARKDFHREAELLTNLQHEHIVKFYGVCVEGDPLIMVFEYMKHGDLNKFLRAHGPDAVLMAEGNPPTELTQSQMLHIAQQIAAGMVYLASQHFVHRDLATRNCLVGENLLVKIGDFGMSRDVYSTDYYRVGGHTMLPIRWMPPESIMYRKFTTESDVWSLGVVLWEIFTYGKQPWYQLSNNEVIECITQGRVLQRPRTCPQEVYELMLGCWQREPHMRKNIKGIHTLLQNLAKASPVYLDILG
TrkB-phosphorylation efficacy (AlphaLISA counts),TrkB-phosphorylation efficacy relative to parental clone without CC bridge (%),"TrkB-phosphorylation potency (EC50, nM) [nM]",Binder
4220,100,9.95,"TPP-22190 (bispecific antibody, human IgG1, kappa) light: DIQLTQSPSSLSASVGDRVTITCSASQDISNYLNWYQQKPGKAPKVLIYFTSSLHSGVPSRFSGSGSGTGFTLTISSLQPEDFATYYCQQYSTVPWTFGQGTKVEIKRTVAAPSVFIFPPSDEQLKSGTASVVCLLNNFYPREAKVQWKVDNALQSGNSQESVTEQDSKDSTYSLSSTLTLSKADYEKHKVYACEVTHQGLSSPVTKSFNRGEC heavy: QVQLVESGGGLVQPGGSLRLSCAASGYDFTHYGMNWVRQAPGKGLEWVGWINTYTGEPTYAADFKRRFTFSLDTSKSTAYLQMNSLRAEDTAVYYCAKYPYYYGTSHWYFDVWGQGTLVTVSSASTKGPSVFPLAPSSKSTSGGTAALGCLVKDYFPEPVTVSWNSGALTSGVHTFPAVLQSSGLYSLSSVVTVPSSSLGTQTYICNVNHKPSNTKVDKRV[in this place human IgG1 Fc with changes]GGGGSGGGGSDIQMTQSPSSLSASVGDRVTITCRTSENVYSNLAWYQQKPGKAPKLLIYAASNLQSGVPSRFSGSGSGTDYTFTISSLQPEDIATYYCQHFWGSPFTFGQGTKLEIKGGSEGKSSGSGSESKSTGGSQVQLVQSGAEVKKPGASVKVSCKASGYTFTNYDIIWVRQAPGQGLEWMGYINPYNDGTKYNEKFKGRVTMTRDTSTSTVYMELSSLRSEDTAVYYCARLLKYRRFRYYAIDYWGQGTTVTVSS"
4850,100,5.49,"TPP-22191 (bispecific antibody, human IgG1, kappa) light: DIQLTQSPSSLSASVGDRVTITCSASQDISNYLNWYQQKPGKAPKVLIYFTSSLHSGVPSRFSGSGSGTGFTLTISSLQPEDFATYYCQQYSTVPWTFGQGTKVEIKRTVAAPSVFIFPPSDEQLKSGTASVVCLLNNFYPREAKVQWKVDNALQSGNSQESVTEQDSKDSTYSLSSTLTLSKADYEKHKVYACEVTHQGLSSPVTKSFNRGEC heavy: EVQLVQSGGGLVQPGGSLRLSCAASGYDFTHYGMNWVRQAPGKGLEWVGWINTYTGEPTYAADFKRRFTFSLDTSKSTAYLQMNSLRAEDTAVYYCAKYPYYYGTSHWYFDVWGQGTLVTVSSASTKGPSVFPLAPSSKSTSGGTAALGCLVKDYFPEPVTVSWNSGALTSGVHTFPAVLQSSGLYSLSSVVTVPSSSLGTQTYICNVNHKPSNTKVDKRV[in this place human IgG1 Fc with changes]GGGGSGGGGSDIQMTQSPSSLSASVGDRVTITCRTSENVYSNLAWYQQKPGKAPKLLIYAASNLQSGVPSRFSGSGSGTDYTFTISSLQPEDIATYYCQHFWGSPFTFGQGTKLEIKGGSEGKSSGSGSESKSTGGSQVQLVQSGAEVKKPGASVKVSCKASGYTFTNYDIIWVRQAPGQGLEWMGYINPYNDGTKYNEKFKGRVTMTRDTSTSTVYMELSSLRSEDTAVYYCARLLKYRRFRYYAIDYWGQGTTVTVSS"
5790,119,1.12,"TPP-22215 (bispecific antibody, human IgG1, kappa) light: DIQLTQSPSSLSASVGDRVTITCSASQDISNYLNWYQQKPGKAPKVLIYFTSSLHSGVPSRFSGSGSGTGFTLTISSLQPEDFATYYCQQYSTVPWTFGQGTKVEIKRTVAAPSVFIFPPSDEQLKSGTASVVCLLNNFYPREAKVQWKVDNALQSGNSQESVTEQDSKDSTYSLSSTLTLSKADYEKHKVYACEVTHQGLSSPVTKSFNRGEC heavy: EVQLVQSGGGLVQPGGSLRLSCAASGYDFTHYGMNWVRQAPGKGLEWVGWINTYTGEPTYAADFKRRFTFSLDTSKSTAYLQMNSLRAEDTAVYYCAKYPYYYGTSHWYFDVWGQGTLVTVSSASTKGPSVFPLAPSSKSTSGGTAALGCLVKDYFPEPVTVSWNSGALTSGVHTFPAVLQSSGLYSLSSVVTVPSSSLGTQTYICNVNHKPSNTKVDKRV[in this place human IgG1 Fc with changes]GGGGSGGGGSDIQMTQSPSSLSASVGDRVTITCRTSENVYSNLAWYQQKPGKAPKLLIYAASNLQSGVPSRFSGSGSGTDYTFTISSLQPEDIATYYCQHFWGSPFTFGCGTKLEIKGGSEGKSSGSGSESKSTGGSQVQLVQSGAEVKKPGASVKVSCKASGYTFTNYDIIWVRQAPGQCLEWMGYINPYNDGTKYNEKFKGRVTMTRDTSTSTVYMELSSLRSEDTAVYYCARLLKYRRFRYYAIDYWGQGTTVTVSS"
